Laboratory results taken from article PMC6919601, “Identification of Plasmodium dipeptidyl aminopeptidase allosteric inhibitors by high throughput screening” (PLoS ONE, 2019).
Where “and” joins values, the source holds several entries; their conditions need not be identical. Equal entries are not always repeated. Hit rate of the full screen: of about 110,000 compounds, about 230 (0.21%) showed an effect of 50% or more. The list shows a part of the results.

target: DPAP1 (Plasmodium falciparum, UniProt Q8IIJ9); assay: primary screen, percent inhibition; read by cleavage of a fluorogenic dipeptide substrate; higher = more effect of the substance; set-up: species or system P. falciparum D10 trophozoite lysates; single well
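Also: 30 min substrate incubation versus DMSO and 10 µM JCP410 controls.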

Chain of DPAP1 (Q8IIJ9 whole entry, looked up): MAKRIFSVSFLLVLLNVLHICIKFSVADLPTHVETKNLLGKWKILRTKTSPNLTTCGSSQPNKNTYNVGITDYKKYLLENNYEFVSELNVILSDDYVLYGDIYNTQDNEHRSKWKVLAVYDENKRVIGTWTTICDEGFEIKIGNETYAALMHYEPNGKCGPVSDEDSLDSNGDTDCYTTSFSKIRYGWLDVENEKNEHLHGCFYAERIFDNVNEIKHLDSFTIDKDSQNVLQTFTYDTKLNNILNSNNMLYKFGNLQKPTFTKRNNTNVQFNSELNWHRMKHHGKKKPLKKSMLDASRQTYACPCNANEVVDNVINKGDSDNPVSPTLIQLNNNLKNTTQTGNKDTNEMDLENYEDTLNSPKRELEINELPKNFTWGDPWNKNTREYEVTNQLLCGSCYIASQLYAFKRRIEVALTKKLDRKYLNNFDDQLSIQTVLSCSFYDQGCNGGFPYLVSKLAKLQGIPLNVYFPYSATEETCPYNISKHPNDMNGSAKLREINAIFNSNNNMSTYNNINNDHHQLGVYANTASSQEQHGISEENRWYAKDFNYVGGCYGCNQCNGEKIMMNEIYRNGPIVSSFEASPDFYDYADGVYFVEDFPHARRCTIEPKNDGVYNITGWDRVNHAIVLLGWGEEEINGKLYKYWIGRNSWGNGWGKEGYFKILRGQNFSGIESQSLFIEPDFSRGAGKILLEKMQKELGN

Row | Compound | % Inhibition @ 10 uM
1 | O=C(O)c1ccc(NS(=O)(=O)c2cccc(C(=O)Nc3cccc([N+](=O)[O-])c3)c2)cc1 | -3.75%
2 | O=C(NCCCc1ccccc1)C1CCCN(S(=O)(=O)N2CCCCC2)C1 (stereo not drawn) | -6.89%
3 | NS(=O)(=O)c1ccc(CCN2C(=O)c3ccc(C45CC6CC(CC(C6)C4)C5)cc3C2=O)cc1 | 0.032%
4 | O=C(Nc1c2c(nc3c1CCC3)CCCC2)c1ccncc1 | -1.96%
5 | CC(C)(C)c1ccc(C(=O)Nc2nccs2)cc1Br | 0.909%
6 | COc1ccc(Br)cc1CNC(=O)c1cc2cccc3c2n1CC(C)S3 (stereo not drawn) | 0.796%
7 | CCOC(=O)c1cnc2ccc(OC)cc2c1NCCO | 0.275%
8 | O=C1C(c2ccccc2)=C(O)c2cnccc21 | 2.46% and -0.519%
9 | CC(CCc1ccc(O)cc1)N1CCN(C/C=C/c2ccccc2)CC1 (stereo not drawn) | -1.81%
10 | O=C(O)CNC(=O)CN1C(=O)c2ccc(C(=O)O)cc2C1=O | 18.3%
11 | COc1cc(OC)c(OC)cc1/C=C1\CS/C(=C\c2cc(OC)c(OC)cc2OC)C1=O | -8.69%
12 | CCOC(=O)C1CCCN(Cc2ccc(OCC)cc2)C1 (stereo not drawn) | -0.192%
13 | C=C(C)C(=O)Nc1ccc(O)c(-c2nc3cc(NC(=O)C(=C)C)ccc3o2)c1 | 5.63%
14 | CCCSc1nnc(-c2ccc(Cl)cc2Cl)o1 | -3.06%
15 | O=C(O)C1CC(=O)N(Cc2ccccc2)/C(=N/c2ccc(Cl)cc2)S1 (stereo not drawn) | -0.171%
16 | CCOC(=O)c1cc(-c2ccc(F)cc2)n(CC(=O)NCCC2=CCCCC2)c1C | -0.176%
17 | O=C(Cn1c(-c2cccs2)cc2ccccc21)N1CCCCC1 | -8.96%
18 | CCOC(=O)c1cc(S(=O)(=O)N(C)Cc2ccccc2)cn1C | 0.655%
19 | CCCn1c2ccccc2c2cnn(CC(=O)N3CCc4ccccc4C3)c(=O)c21 | 0.691%
20 | COC(=O)c1cn(C(=O)c2cnn3c(C(F)F)cc(-c4ccccc4)nc23)c2ccccc12 | -0.958%
21 | Cc1ccc(/C=C2N=C(/C=C/c3cccc(Cl)c3Cl)OC\2=O)o1 | -0.597%

Row | Compound | % Inhibition @ 10 uM
22 | CCOc1ccc(-c2nc(CSCC(=O)N3CCN(C(=O)c4ccco4)CC3)c(C)o2)cc1 | 0.51%
23 | Cc1nnc(SCC(=O)N2CCC(C(N)=O)CC2)c2nn(-c3ccccc3)c(C)c12 | 5.5%
24 | Cc1ccc(C)n1CCc1c[nH]c2ccccc12 | 9.35%
25 | COc1ccc(CC(=O)Nc2ccc(S(=O)(=O)N(C)Cc3ccccc3)cc2)cc1 | 3.17%
26 | CC1=C(C(=O)NCc2cccc(Cl)c2)C2(CCC(C)CC2)OC1=O (stereo not drawn) | -5.58%
27 | O=S(=O)(Nc1ccccc1Cl)c1ccccc1 | -1.86%
28 | O=C1c2ccccc2C(=O)N1c1nc2nc(-c3ccccc3)cc(O)n2n1 | -0.0735%
29 | c1ccc(-c2ccc(-c3nc(-c4ccccc4)no3)cc2)cc1 | -1.99%
30 | COc1cc(NC(=O)c2ccc3c(c2)C(=O)N(Cc2cccnc2)C3=O)c(C(=O)O)cc1OC | -0.185%
31 | O=C(O)CN(CC(=O)O)Cc1cc(O)ccc1O | 0.989%
32 | Cc1ccc(C2=NN(CC(=O)NCCCN3CCC(Cc4ccccc4)CC3)C(=O)CC2)cc1 | -4.83%
33 | O=C1NC(=S)S/C1=C\c1ccc(-c2ccccc2C(=O)O)o1 | 5.8%
34 | COc1cc(OC)cc(C(=O)NC2CCCCC2)c1 | 2.48%
35 | O=C(NCc1cccnc1)c1cccc2c1C(=O)N(C1CCCCC1)C2 | -0.499%
36 | COc1ccc(-c2noc(N3CCC(C(=O)NC4CCCCC4C)CC3)n2)cc1 (stereo not drawn) | 5.8%
37 | Cc1cc(C)c(NS(=O)(=O)c2ccc3c(c2)OCCO3)c(C)c1 | -1.99%
38 | CCC1=Nc2ncnn2C(c2cc(OC)c(OC)cc2OC)/C1=C(/O)OC (stereo not drawn) | 3.32%
39 | Cc1nnc2c3nnc(C)n3c3ccccc3n12 | 5.9%
40 | Clc1ccc(CNc2ccc(CNc3nc[nH]n3)cc2)c(Cl)c1 | 3.49%
41 | C(#Cc1ccccc1)CN1CCN(C(c2ccccc2)c2ccccc2)CC1 | -0.239%
42 | CCOc1ccc(-c2c(C)nn3c(-c4ccccc4)c(C(=O)NC(C)CC)cnc23)cc1OCC (stereo not drawn) | 1.63%

Row | Compound | % Inhibition @ 10 uM
43 | CCOC(=O)c1c(CN(C)C)n(-c2ccccc2)c2cc(Br)c(OC)cc12 | 1.76%
44 | Cc1ccc2oc(C(F)(F)F)cc(=O)c2c1 | -0.233%
45 | Cc1ccc(CNS(=O)(=O)c2c(C)nc3sccn3c2=O)cc1 | -0.0709%
46 | O=C1CCSc2c1cccc2C(=O)Nc1cccnc1Cl | -5.05%
47 | c1ccc2c(c1)nc(NCCN1CCOCC1)c1nncn12 | -4.21%
48 | CS(=O)(=O)c1nc(S(=O)(=O)c2ccc(Cl)cc2)c(NCc2cccnc2)s1 | -4.04%
49 | CN(C)CCN(C)Cc1ccc(F)c(Br)c1 | -0.833%
50 | Cc1ccc(NC(=O)c2ccccc2C)cc1N | 9.41%
51 | COc1cc(OC)c2c(c1)ncc1c(C)nn(-c3ccccc3)c12 | 1.85%
52 | COc1ccc(CCN2C(=O)CNCC2=O)cc1OC | 1.42%
53 | O=C(N/C(=C\c1ccco1)C(=O)N1CCN(c2ccccn2)CC1)c1ccccc1 | -0.996%
54 | Cc1sc(NC(=O)COc2ccc3ccccc3c2Br)c(C(N)=O)c1C | -1.06%
55 | COc1ccc(Cn2c(=O)c3ccccc3n3c(-c4cccs4)nnc23)cc1 | -1.72%
56 | CC(C)C1CC(c2csc(N)n2)CCO1 (stereo not drawn) | 4.54%
57 | CCc1nnc(NS(=O)(=O)c2ccc(NC(=O)c3ccc([N+](=O)[O-])cc3)cc2)s1 | 2.86%
58 | CC12CN3CC(C)(CN(C1)C3c1c[nH]c3ccccc13)C2O (stereo not drawn) | -1.55%
59 | COc1ccccc1C1C2=C(O)CCCC2=Nc2nnnn21 (stereo not drawn) | -3.53%
60 | COc1ccc(C(=O)Nc2sc(C)c(C)c2C(N)=O)cc1 | -0.088%
61 | Cc1ccc(CN(Cc2ccco2)C(=O)c2ccccc2C)cc1 | 1.25%
62 | CCOc1ccc(C(=O)Nc2c3c(nn2-c2cccc(C)c2C)CS(=O)(=O)C3)cc1OCC | -1.28%
63 | CC(=O)c1cc(-c2ccc(F)cc2)n(CCC(=O)NCc2ccccc2)c1C | 6.11%
